Source: the supplement of paper PMC11417369
This is one part of the list.

These sequences were tested on PF3D7_0420300 AP2 domain 1 (GST-tagged) (assay: gcPBM binding intensity (ln(normalized median fluorescence intensity)); higher = stronger DNA binding).
Summary of the method: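 GST-tagged P. falciparum DNA-binding domains produced in E. coli were incubated for 1 h on an Agilent 4 × 180k array of primer-extended double-stranded 36-bp intergenic genomic probes with negative controls. Binding intensity is the highest Masliner-normalised natural-log median intensity across replicate spots of either probe orientation, with bound protein detected by Alexa488 anti-GST antibody at 488 nm.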
In the case of “AATATCACCACATTGTTACTATAATATATAAAAAAG [XGTACX_negctrl_site384]”, the “gcPBM binding intensity (ln)” value is reported as 9.22. With “ATTCATAAAAGTTGTACATGCAATTTTTTTTTTTTT [TGCATGCA_site270]” the “gcPBM binding intensity (ln)” value was 9.08. “ATTTTGTTATGAAACACACACATATATATATATATA [CACACA_site3650]” was tested, and the “gcPBM binding intensity (ln)” value was 9.53. “ATATATGTAACATATTGTACATATATGTATGTATGT [XGTACX_site3281]” was tested, and the “gcPBM binding intensity (ln)” value was 9.33. In the case of “ATGATAAAATTATGTAGTACATATTTGAATGTAAAT [XGTACX_site688]”, the “gcPBM binding intensity (ln)” value is reported as 9.24. In the case of AAATTATGCATCGAGGTGCGTCTTAAAATATAGTGG, the “gcPBM binding intensity (ln)” value is reported as 9.28. With “ATATAAATTCAAATTACACACATTTATTTTTTTTAC [CACACA_site53]” the “gcPBM binding intensity (ln)” value was 9.44. With “CTACATAATAAAAAAAGTACATTCTAATAAATTGAC [XGTACX_site4504]” the “gcPBM binding intensity (ln)” value was 9.35. For “ACTAATAATTTGTCGGTGCATAAAATTATTTTTATT [GTGCAC_site9840]”, the “gcPBM binding intensity (ln)” value was 9.31. In the case of “TATATGCCTATAAGAAGTACTGTGTAATGTAATATA [XGTACX_site8089]”, the “gcPBM binding intensity (ln)” value is reported as 9.26. “TAAACATAAATATGCACACATATACATATATTCATA [CACACA_site2667]” was tested, and the “gcPBM binding intensity (ln)” value was 9.46. With “AAGAAAAATATATTTATATATATATATATTAAATAT [TGCATGCA_negctrl_site500]” the “gcPBM binding intensity (ln)” value was 8.98. In the case of “AATTTTATACGATAAACATGCAAATAAATAAATAAA [TGCATGCA_site227]”, the “gcPBM binding intensity (ln)” value is reported as 9.18. With “AAAGAAAAAAAAAACACACACACACCCATTCAATAT [CACACA_site38]” the “gcPBM binding intensity (ln)” value was 10.2. For “TATAATAATATTTATTGTACAATTAGTTTAATTCAT [XGTACX_site272]”, the “gcPBM binding intensity (ln)” value was 9.08. “TTTATTATATAAACATGTACACAATTTGGTATATTC [XGTACX_site3112]” was tested, and the “gcPBM binding intensity (ln)” value was 9.21. “ACAGCCAATACGGAAACACACAAGTTATTTTATCAT [CACACA_site5507]” was tested, and the “gcPBM binding intensity (ln)” value was 9.4. In the case of “CATTCTTGTTTAAAAAGTACATAAACATATATATAT [XGTACX_site1751]”, the “gcPBM binding intensity (ln)” value is reported as 9. “AAAAAAAATAAAGAGAAAAAAAAAAGAAAATTATAT [GTGCAC_negctrl_site550]” was tested, and the “gcPBM binding intensity (ln)” value was 9.38. With “TAAATTAATATGTATCGTACAATATATAAAACGATG [XGTACX_site2818]” the “gcPBM binding intensity (ln)” value was 9.27. With “TTCTTCTGTTTTATTACACACCATTTTGCGTATACA [CACACA_site2070]” the “gcPBM binding intensity (ln)” value was 9.7. “ACATATTATATAACTCGTACTCGTAAAATATGTTGT [XGTACX_site2240]” was tested, and the “gcPBM binding intensity (ln)” value was 9.37. For “GTCATAAATGTACGCACACATACATAAACATATACA [CACACA_site650]”, the “gcPBM binding intensity (ln)” value was 9.46. With “GTTCTTTTATATATTTGTACATATTTATATATATTG [XGTACX_site4078]” the “gcPBM binding intensity (ln)” value was 9.72. In the case of “ATATTATATATATAGGTGCGAGTATTTTATAAATAT [GTGCAC_site9889]”, the “gcPBM binding intensity (ln)” value is reported as 9.38.
